Test results from the RNAGym collection of RNA variant scans (doi:10.7554/elife.90254).
The source gives no read counts; variants with many changes may rest on few reads.

B1: LINE1-mini (parent)
chain: GGCAGAGCUCAACACAGCGUGGCAAAGUGGCUGUGGCUAGACUGCC

Variants of: B1
Assay: self-cleavage, relative activity (ratio to wild type); higher = more cleavage; in vitro, sequencing; the parent is a self-cleaving ribozyme

Variant	self-cleavage
CGCAGAGCUCAACAAAGCGUUGCAAAGUGGCUGUGGCUAGACUGCU	0.04
CGCAGAGCUCAACACAGCGUGGCAAAGUGGAUGAGGCUUGACUGGC	0.01
CGCACUGCUCAACACAGCGUGGCAAAGUGGCUGUGGCUAGGCUGCC	0.03
CGCACAGCUCAACACAGCGUGGGAAAGUGGGUGUGCCUAGACUGCC	0.01
CGCAGAGCUCAACACAGCGUGGCAAAGUGGUUGUGGCUAAACUGCA	0.01
CGCAGAGCUCAAGACAGCGUGGCAAAGUGGCUGUGGCUAGACUGCG	0.05
CGCAGAGCUCAACACAGAGUGGCAAAGUGGCUGUGGUUAGACUGCC	0.03
CGCAGAGCUCAACACAGUGUGGCAAAGUAGCUGUGGCUAGACUGCC	0.26
CCCAGAGCUCAACACAGCGUGGCAAAGUGGCUGUGGGUAGACUGUC	0.04
CCCAGAGCUCAACACAGCGUGGCAAAGUGUCUGUGGCUAGUAUGCC	0.09
CGCAGAGCUCAACAUAGCGUGGCAAAUUGGCUGUGGCUAGACUGCC	0.04
CGCACAGCUCCACACAGCGUGGCAAAAUGGCUUAGGCUAGACUGCC	0
CACAGGGCUGAACACAGCGUGGCAAAGUGGCUGUGGCUAGACUGCC	0
CGCAGAGCUCAACACAGAGUGCCAAAGUGGCUGUGGCUAGACUGCC	0.04
CGCAGAGCUCAACAGAGCGCGGCAAAGUGGCUGUGGCUAGACUGCC	0.02
CUCAGAGCUCAACACAGCGUGGCAAAGUGGCUGUGGCUAGAUUGCC	0.02
CGCAGAGCUCAACACAGCGUGGCAAAGUGGCUGUGGUAAGACUGCA	0
CGCAGAGCUCAACACAGCGUGGGAUAGUGGCUGCGGCUAGACUGCA	0.02
CGCAGAGCUCAACACAGCGUGGUAAAGUGGGUGUGGAUAGACUGCU	0.01

Variant	self-cleavage
CGCAGAGCUCAACACAGAGUGGAAAAGUGGCUGUGGCUAGACUGCC	0.07
CGCAGAGCUCAACACAGUGUGGCAUAGUGGCUGUGGCUAGACUGCC	0.1
CGCAGAGCUCAACACAGCGUGGUAUAGUGGCUAUCGCUCGACUGCC	0
CGCAGAGCUCAACACAGGGUGGCGAAGUGGCUGUGGCUAGACUUCA	0.01
CGCAGAGCUCAACAAAGCGUGGCAAACUGGCUGUGCCUAGACUGCC	0.01
CGCAGAGCUCAACAAAUCGUGGCAAAGUGGCUGUGGCUAGACUGCC	0.01
CGCAGAGCUCAACAAACCGUGGCAAAGUGGCUGUGGCUAGACUGCC	0.01
CACAGAGAUCUACACAGCGUGCCAAACUGGCUGUGGCUGGACUGCC	0.01
CGCAGAGCUCAACAUAGCUUGGCAAAGUGGCUGUGGCUAGACUGCC	0.04
CUCAGAGCUCAACACUGCGUGGCAAAGUGGCUGCGGCUUGACUGCG	0.01
CGCAGAGCUCAACAAAGCGUGGCAAAGUGGCUGUGGCAAGACUGCC	0.02
CGCAGAGCUCAACACAGGGUGGCACAGUGGCUGUGGCUAGAUUGCC	0.01
CGCAGAGCUCAAUACAGCGUGGCAAAGUGGCUGUGGCUAAACUGCC	0.01
CGCACAGAUCCACACUGCAUGCCAAAGUCGCUGUGGCUAGACUGCC	0.01
CGCAAAGCUCAACACAGCGUGGCAAAGUGGCUGUGGCAAGACUGCC	0
CGCAAAGCUCAACACAGCGUGGAAAAGUGGCGGUGGUUAUACUGCC	0.03
CGCAAAGCACAGCACAGGGUGGCAAAGUGGCUGUGCCAAGACUGCA	0
CGCAAAGAUCAACAGAGCGUGGCAAAGUGGCAGUGGCUAGACCGCC	0.05
CGCAGAGCUCAACACAGCGUGGCAAAGUGGGUGUGGCCUGACUGCC	0

Variant	self-cleavage
CGCAGAGCUCAACAUAGAGUAGCAAAGUGUCUGUGGCUAGACUGCC	0.01
CCCAGAGCUCAACACAGCGUGGCUAAGUGGCUGUUGCUAGACUGCC	0.31
CGCACAGCUGAACACGGCGUGGCAAAGUGGCUGUGGAUAGACUGCC	0.02
CUCAGAGCUCAACACCGCGUGGCAAAGUGGCUGUGGCUAGACUGCC	0.02
CGCAGAGCUCAAUACAGCGUCGCAAAGUGGCUGUGGCUAGACUGCC	0.03
CGCAAAGCUCAACACAGCGUGGCACAGUGGCUGUGGCUAGACUGCC	0.01
CGCAGAGCUCAACACAGCGUGGCAAAGUGGGUGUGGCUAGACUGAC	0.06
CCCAGAGCUCAACACAGCGUGGCAAAGUGGCUGUCGCCAGACUGCC	0.01
CGCAGAGCUCAAUACAGCGUGGUAAAGUGGCUGUGACUAGACUGCC	0.09
CGCAGAGCUCAACACAGAGUGGCAAAGUCGCUGUGGCUAGACUGCC	0.11
CUCAGAGCUCAACACAACGUGGCAAAGUGGCUGUGCCUAGACUGCC	0.01
CGCACAGCUCAACACUGCGUGGCGAAGUGGCUGUGGCUAGACUGUC	0.01
CCCAGAGCUCAACACAGAGUGGCAAAGUGGCUGUGGCUAUACUGCC	0.06
CCCACAGCUCAACACAGCGUGGCAAAGUGGCUGUGGCUAGACUGCA	0.01
CACAGAUCUCAAUACAGCGUGGCCAAAUGGCUGUGGCUAGACUGCC	0.03
CUCAGACCUCAACACAGCGUGACAAAGUGGCUCUGGCUAGACUGCC	0.02
CGCAGAGCUCAAGACAGUGUGGCGAAGUGGCUGUGGCUAGACUGCC	0.01
CCCAGAGCUCAACACAGCGUGGGAAAGAGGCUGUGGCUAGACUGCC	0.03
